Assay results from patent US20200181597A1, “Composition and Application of Arginine-depleting Agents for Cancer, Obesity, Metabolic Disorders, and Related Complications and Comorbidities” (THE HONG KONG POLYTECHNIC UNIVERSITY, priority 2018, published 2020).
Where “and” joins values, the source holds several entries; their conditions need not be identical. Identical values can stand only once.

B1: BHA: BCA-6×His-ABD fusion protein, BCA with V20P and S161C (protein)
chain: MKPISIIGVPMDLGQTRRGPDMGPSAMRYAGVIERLERLHYDIEDLGDIPIGKAERLHEQGDSRLRNLKAVAEANEKLAAAVDQVVQRGRFPLVLGGDHSIAIGTLAGVAKHYERLGVIWYDAHGDVNTAETSPSGNIHGMPLAASLGFGHPALTQIGGYCPKIKPEHVVLIGVRSLDEGEKKFIREKGIKIYTMHEVDRLGMTRVMEETIAYLKERTDGVHLSLDLDGLDPSDAPGVGTPVIGGLTYRESHLAMEMLAEAQIITSAEFVEVNPILDERNKTASVAVALMGSLFGEKLMHHHHHHAQHDEAVDANSLAEAKVLANRELDKYGVSDYYKNLINNAKTVEGVKALIDEILAALP
modifications: 6xHis, ABD fusion; BHA Fusion Protein, Synthesized in the Lab
B2: BCA (S161C)-His: engineered Bacillus caldovelox arginase with serine-to-cysteine mutation and C-terminal histidine tag (protein)
chain: MKPISIIGVPMDLGQTRRGVDMGPSAMRYAGVIERLERLHYDIEDLGDIPIGKAERLHEQGDSRLRNLKAVAEANEKLAAAVDQVVQRGRFPLVLGGDHSIAIGTLAGVAKHYERLGVIWYDAHGDVNTAETSPSGNIHGMPLAASLGFGHPALTQIGGYCPKIKPEHVVLIGVRSLDEGEKKFIREKGIKIYTMHEVDRLGMTRVMEETIAYLKERTDGVHLSLDLDGLDPSDAPGVGTPVIGGLTYRESHLAMEMLAEAQIITSAEFVEVNPILDERNKTASVAVALMGSLFGEKLMHHHHHH
modifications: His tag; BCA (S161C) - His, Synthesized in Lab
B3: BCA (SEQ ID NO: 71): BCA arginase; SEQ ID NO: 71 is headed BCA (S161C)-His amino acid sequence (protein)
chain: MKPISIIGVPMDLGQTRRGVDMGPSAMRYAGVIERLERLHYDIEDLGDIPIGKAERLHEQGDSRLRNLKAVAEANEKLAAAVDQVVQRGRFPLVLGGDHSIAIGTLAGVAKHYERLGVIWYDAHGDVNTAETSPSGNIHGMPLAASLGFGHPALTQIGGYCPKIKPEHVVLIGVRSLDEGEKKFIREKGIKIYTMHEVDRLGMTRVMEETIAYLKERTDGVHLSLDLDGLDPSDAPGVGTPVIGGLTYRESHLAMEMLAEAQIITSAEFVEVNPILDERNKTASVAVALMGSLFGEKLM
modifications: His tag; BCA (S161C) Arginase, Synthesized in the Lab

How the values were obtained:
[1] = Arginase specific activity, DAMO colorimetric assay; assay type: biochemical; settings: for Specific activity: DAMO assay, 37° C., pH 7.4, purified preparation
From the text: The arginase activity of the fusion proteins described herein can be substantially the same, lower, or higher than the activity of the arginase polypeptide from which it is derived. One unit of arginase activity is defined as the amount of fusion protein [e.g., BHA (SEQ ID NO; 75), BAH (SEQ ID NO: 76), N-ABD-rhArg (SEQ ID NO: 49), or N-ABD094-rhArg (SEQ ID NO: 50)] or arginase [e.g., BCA (SEQ ID NO: 70)] that catalyzes the production of 1 μmol of urea per min under standard assay conditions. The specific activity of the enzyme is expressed as activity units per mg of protein. Under standard diacetylmonoxime (DAMO) assay conditions (37° C., pH 7.4), the fusion proteins can have a specific activity that is about 5%, about 10%, about 15%, about 20%, about 25% about 30%, about 35% or about 40% lower or higher than the corresponding arginase polypeptide which it incorporates. In certain embodiments, fusion proteins can have a specific activity that is about 5% to about 40%, about 10% to about 40%, about 10% to about 35%, about 10% to about 30%, about 20% to about 30%, about 20% to about 35%, about 15% to about 30%, about 15% to about 25%, or about 10% to about 20% lower or higher than the corresponding arginase polypeptide which it incorporates.
One unit of enzyme activity is defined as the amount of enzyme (BCA, BHA or BAH) that catalyzes the production of 1 μmol urea per min under standard assay conditions. Specific activity of the enzyme is expressed as activity units per mg of protein.
Briefly, a serial dilution of 0.3 mL BCA solutions together with 0.15 mL water and 720 mM arginine substrate at pH 7.4 was pre-incubated separately at 37° C. for 10 min. The enzymatic reaction was carried out by adding 0.3 mL arginine substrate to the pre-incubated enzyme solutions. The reaction mixture was incubated at 37° C. for exactly 5 minutes and quenching reagent [50% trichloroacetic acid (TCA)] was added to stop the reaction. The sample blanks were prepared in a similar way but the same volume of enzyme solutions was added after TCA solution.
The urea formed from the above reaction was quantified using the DAMO direct colorimetric method described by World Health Organization (WHO). This protocol has been adopted by WHO as the Standard Operating Procedures (SOP) for measuring the blood urea concentration. Several reagents were prepared regarding the SOP, mixed acid reagent was prepared by slowly adding 100 mL concentrated sulfuric acid to 400 mL distilled water followed by 0.3 mL stock acid reagent (0.5 g ferric chloride hexahydrate in 15 mL of distilled water and make up to 25 mL by concentrated phosphoric acid). […] The absorbance at 540 nm was measured. […]

[2] = target: human serum albumin (HSA) (Homo sapiens, UniProt P02768); test: Binding to HSA on non-denaturing PAGE; settings: fixed HSA titrated at various molar ratios
Method: When ABD is fused to rhArg or BCA, it is important for the fusion protein to retain both the albumin binding capacity and the enzymatic activity. […] The reaction mixtures were analyzed in their native condition on non-denaturing PAGE where the proteins were separated by size and conformation.
In FIG. 7, the mobility of each of HSA and N-ABD-rhArg (SEQ ID NO: 49) alone are shown in Lanes 2 and 3 of the non-denaturing PAGE, respectively (FIG. 7). A fixed amount of HSA (30 pmoles) was titrated against N-ABD-rhArg (SEQ ID NO: 49) at various molar ratios and the results are illustrated in Lanes 5-9. […] In FIG. 8, the mobility of each of HSA and BHA (SEQ ID NO: 75) alone are shown in Lanes 6 and 7 of the non-denaturing PAGE, respectively (FIG. 8). A fixed amount of HSA (60 pmoles) was titrated against BHA (SEQ ID NO: 75) at various molar ratios and the results are illustrated in Lanes 1-5.

plasma arginine = settings: 250 U per mouse; for period of undetectable plasma arginine: i.v. or i.p., detection limit 3 μM
Method: FIG. 9 illustrates the pharmacodynamics of BCA (S161C)-His (SEQ ID NO: 89) and the BHA fusion protein (SEQ ID NO: 75) on plasma arginine in mice. Each BALB/c mouse was administered via intravenous injection (i.v.) or intraperitoneal injection (i.p.) with 250 U BCA (S161C)-His (SEQ ID NO: 89) or BHA fusion protein (SEQ ID NO: 75). Plasma was collected at the indicated time points after injection. Time 0 refers to the plasma sample collected prior to the injection. The amount of arginine in each sample is determined by the Biochrom 30 Amino Acid Analyzer. Arginine concentrations below the detection limit (3 μM) are regarded as 0 μM in these plots. Each point represents mean±SD of three mice.
Six BALB/c mice of 8 weeks old were used for the in vivo study of BHA (SEQ ID NO: 75). Prior to the injection of BHA (SEQ ID NO: 75), blood sample was taken from each mouse and used as control (0 h). The mice were randomly divided into two groups for intraperitoneal (i.p.) and intravenous (i.v.) injection, respectively. BHA (SEQ ID NO: 75) (250 U) was injected to each mouse, and blood samples were taken at 6, 24, 72, and 120 h after injection. The plasma of each blood sample at 16 μL was analyzed by an amino acid analyzer (Biochrom) for arginine and ornithine content.

[3] = system: MKN45 gastric cancer cell line; test: MTT viability of gastric cancer cells with BHA; assay type: cell-based; settings: 72 h, dose-dependent manner
Method: The growth of MKN45 was inhibited in a dose-dependent manner. The viability was determined by MTT endpoint colorimetric assay. Data expressed as mean±SD,n=3.
The in vitro efficacy of the albumin-binding arginase BHA (SEQ ID NO: 75) was tested by incubating the MKN45 gastric cancer cell line with various concentrations of BHA (SEQ ID NO: 75) for 72 h and determining the viability of MKN45 by MTT assay. […] This further confirmed the cytotoxicity of the arginine-depleting fusion protein in culture condition where the medium was supplemented with fetal bovine serum (FBS) and, including albumin as well as other different proteins.

[4] = system: HCT116 human colon cancer cells; test: Apoptosis by annexin V-FITC and PI flow cytometry; assay type: cell-based; settings: 50 μg/mL
Method: To evaluate the induction of apoptosis by the BCA arginase (SEQ ID NO: 71), 3×10^5 cells were seeded in 6-well plate one day prior to different treatment conditions. The medium was withdrawn and replenished with complete medium supplemented with different concentrations of BCA (SEQ ID NO: 71). After exposed to BCA for 24 h, 48 h and 72 h, both floating cells and adherent cells were collected. Briefly, the floating cells in culture medium were collected by centrifugation at 100×g for 3 min at room temperature while the adherent cells were washed with PBS and lifted by incubating with 0.25% trypsin solution for 3 min at 37° C. After addition of complete medium, the cells were collected by centrifugation. The cells were washed with PBS and resuspended in 0.1 mL binding buffer (0.01 M HEPES, pH 7.4; 0.14 M NaCl; 2.5 mM CaCl2) containing propidium iodide (PI) and annexin V-FITC. The cells were stained in dark at room temperature for 15 min and 0.4 mL of binding buffer was added to each tube prior to flow cytometry analysis using FACSAria (BD biosciences). The cytometer was set to acquire the data from 10,000 cells for each sample and the data were analyzed by the FACSAria software.

| Molecule | specific activities of BHA alone and the BHA-HSA complexes ([1]; BHA:HSA mole ratio 1:10, 1:5, 1:1, 5:1 and 10:1) | Specific activity [1] | effect of HSA on arginine catabolic activity ([1]; various amounts of HSA added) | binding to HSA (free HSA reduced in a proportional manner) [2] | tolerance, side effects (plasma arginine) | period of undetectable plasma arginine (plasma arginine) | growth of MKN45 cancer cells [3] | time for plasma arginine to return to normal (plasma arginine) | HCT116 cells undergone apoptosis ([4]; 24 h) | HCT116 cells undergone apoptosis ([4]; 48 h) | HCT116 cells undergone apoptosis ([4]; 72 h) |
| --- | --- | --- | --- | --- | --- | --- | --- | --- | --- | --- | --- |
| B1 | approximately 200 U/mg | 220.6±15.8 U/mg | not affected | specific binding | no obvious side effects | at least 24 hours | inhibited |  |  |  |  |
| B2 |  | 243.30 U/mg and 264 U/mg |  |  |  | 8 h |  | ≤ 24 h |  |  |  |
| B3 |  |  |  |  |  |  |  |  | ~16% | 21% | 25% |
